# From the supplement of paper PMC11417369
# This is one part of the list.
# Test system: PfHDP1 homeodomain (GST-tagged)
# Test: gcPBM binding intensity (ln(normalized median fluorescence intensity)); higher = stronger DNA binding
# How it was run: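 Probes on an Agilent 4 × 180k array were primer-extended, double-stranded and 36 bp long, taken from intergenic genomic regions, with negative controls added. GST-tagged P. falciparum DNA-binding domains from E. coli, about 25 μg on average, were applied to the array for 1 h in 1× PBS containing 1% milk, 0.2 mg/ml BSA, 0.5% salmon testes DNA and 0.03% Triton X-100. Binding intensity, obtained after Alexa488 anti-GST antibody detection and a 488 nm scan, is the highest Masliner-normalised natural-log median intensity across replicate spots of either probe orientation.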
row,Sequence,gcPBM binding intensity (ln)
1,GAAAAAATATATAAATGTACATATAATAATATCATA [XGTACX_site6788],6.44
2,ATTATTTTTTTATGTTGTACATAATATTTTTTAAAA [XGTACX_site1666],6.91
3,CTTAAAAATAACTGCACACAAAAATAAATACCTTAT [CACACA_site2793],7.67
4,TTCCAACATTGTTTTTGTACATAATTAACTGTTATT [XGTACX_site5224],6.81
5,TAATATTTATAAAATAGTACACAGAAAAAGCATTTT [XGTACX_site8948],6.67
6,ATATATATGGATGGACGTACGTATGTATGTAATTTC [XGTACX_site4135],7.12
7,TAATAATTTTATAAAGTGCATAAAAATAAAAATTTT,8.28
8,TTTTTTTTTTTTTTAATTAATTACCTTTGAATGTGT [CACACA_negctrl_site393],6.31
9,TCGTATATGGATTTTGCACACAATTTTAATTTAAAT [CACACA_site4635],10.7
10,ATGATTTGTCTGAAATGTACATATATATATATATAT [XGTACX_site5247],9.24
11,AACAAATAAACAAAATTGGAAAATAAAAATATCAAA [CACACA_negctrl_site1125],6.35
12,ATTTTAATAAAATATGTACACACATACACCCATATA [CACACA_site8326],7.11
13,TGATATCTTAAGAAATGTACAAAGATATAACCATTT [XGTACX_site1913],6.22
14,CATACATAAATATAAACATGCATATATTTTTTTTAT [TGCATGCA_site616],6.33
15,TAAATAAAAAAAAATACACACATCTATATAAAATAT [CACACA_site3774],6.3
16,GTATCAAAAGAATACACACACACATACCTATAAATA [CACACA_site7737],6.85
17,AAAGGAAAAAAAGTAGCACACAAATATTTATAATAT [CACACA_site8772],6.76
18,TGTATAACCTGTGTTACACACATTAAAATTTATATA [CACACA_site4449],6.42
19,ATAAATGTGTTTATTTAACACACAAAAGAAAAAATA [CACACA_site8589],6.6

row,Sequence,gcPBM binding intensity (ln)
1,GATATTTTTATTTGTTGTACTTAAGATAATAAATGA [XGTACX_site2891],6.6
2,AAAAAAAAAAAAATACGTACACAAAAAATTGCAAAG [XGTACX_site5663],8.69
3,AATATATTAAAAAAGCGTACAAGAATTGGAAAATGG [XGTACX_site6576],7.08
4,ATATATTATCAACTTACACACAGAAAAATATAATAA [CACACA_site293],6.53
5,GATATGTAAATAATATGTACATATTTATATTGTATT [XGTACX_site4052],6.44
6,TTTAAAGGTGATAAAACACACGATTTAGAAATGTAT [CACACA_site3161],6.46
7,AAAAAGAATGTGAACACACACATTGAATATAATTTA [CACACA_site1262],6.23
8,TTTTTAGTAACATATAGTACATATATATATATATGT [XGTACX_site4780],6.61
9,TTAATACAAATAAAAAGTACAAGTATCGAACTACTA [XGTACX_site6308],6.03
10,ATAATATGAAACTCGTACGAGGTTGTCCCAAATATA [CACACA_negctrl_site1350],6.6
11,TTATTTTTTCTTCAAATGTGAATTATTCATTTATTT [TGCATGCA_negctrl_site545],6.38
12,AAAAAAAAAACACACACATGCACATCATATTATATA [TGCATGCA_site133],7.84
13,GTTGTTATATAAAGGAGTACATAATAACACAAATAT [XGTACX_site615],7
14,TTTTCTTGTAGTATAACAAAATATAGTAATATATAT [GTGCAC_negctrl_site609],6.51
15,GATTTATTTCATATCACACATTTTGGCTATTTTGTG [CACACA_site5793],6.39
16,AAAAAAAAAAAAAAAACACACATTTATAGTATATAT [CACACA_site1194],6.7
17,CCATTTGGTATTATATGTACATATAATTTTTTTTTT [XGTACX_site157],6.54
18,AATCCTTCATATGTAGTGCATATTAACAAAATAAAA [GTGCAC_site9500],8.42
19,TCCAATTCTTTATTTTGTACACATTATGTGCATATG [XGTACX_site6290],10.9

row,Sequence,gcPBM binding intensity (ln)
1,GGAATAACCAGACACACACACACATATATATATATA [CACACA_site3541],9.21
2,TATATATAATATTATACACACATATCTGCATAATAT [CACACA_site4202],7.05
3,AGATCATAATATTATACACACATTATATATATGTAA [CACACA_site8419],7.15
4,TGGAAAGTTATTAACACACACATATAAATATTTATA [CACACA_site6173],6.74
5,AAGTACCATATAGGCACACATATATATATATATATA [CACACA_site3282],9.48
6,AAAAACCATTCGCACACACACATAATCTATAATATA [CACACA_site6782],7.67
7,GTATATATGTATATGTGTACATATATTTTATAATAT [XGTACX_site5703],6.46
8,AAAAACGAAAAAAATACACACCTGAAAAGATATGTA [CACACA_site4644],6.05
9,AATATTTTGATGTGTACACATTAATACAGTTTTACA [CACACA_site5711],7.04
10,TATATATATTAACTTGTGCGCAAAAAGATATAATTT [GTGCAC_site9672],7.81
11,ATATGTATGTATGTCTCAAAATTTCATATTATATTA [CACACA_negctrl_site784],6.23
12,TAGGATATTGAATAATGTACTTTATATATAATATAA [XGTACX_site7828],6.08
13,AAGAAATAAAAAAAACGTACATATATACATACATAC [XGTACX_site3980],7.3
14,AATATATATATTAAATGTACATTACATAATTATATA [XGTACX_site3450],6.59
15,TGCAACAAAATAAACACACACACACTAGCACAAAAA [CACACA_site5805],6.96
16,TAAATGAAAATATGTACACACTTGAAAACTTTTATG [CACACA_site7388],6.61
17,TTTTTTTTTTTAGACACATGCATTTTTATAATTTTC [TGCATGCA_site843],6.53
18,TCCTAATGCTACCACACACACAAAAACAAATAATAA [CACACA_site2610],7.2
